Measured values as given in PubChem BioAssay AID652104 (National Center for Advancing Translational Sciences (NCATS), 2013).
In all, about 410,000 compounds went through this assay and about 7,200 (1.8%) were called active. The shares of active, inactive and inconclusive entries below differ from those in the screen. Calls come from the whole dose curve; as a rule, active = well fitted activation curve with a large enough effect; inconclusive = small, poorly fitted or top-dose-only effect, or another doubt; inactive = no such curve, though single readings can be large or run the other way. No potency is given beside an inconclusive call; the fits are too rough.
Potency is the fitted concentration of half-maximal effect; tags give direction and shape of the fitted curve.

Experiment: qHTS of TDP-43 Inhibitors; note: nearly all actives have a fitted effect of over 50% in size
Details: TDP-43 expressing yeast growth rescue, BacTiter-Glo, 24 h; series mostly up to 46.1 µM
In short: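 Luminescence from BacTiter-Glo reports growth of TDP-43-expressing yeast after 24 hr at 30 deg C with compound. Cells were raffinose-pregrown to mid-log, then seeded in galactose medium at OD600=0.02.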
With `O=C1OCC(Cn2c3ccccc3c3ccccc32)O1` (stereo unspecified) the Potency was inconclusive [activator, single point].
With `COc1ccc(N=Nc2[nH]c3ccc(C)cc3c2O)cc1` the Potency was “inactive”.
In the case of `COc1cccc(NC(=O)N2CCCc3ccccc32)c1`, the Potency is reported as inconclusive [activator, partial curve].
For `COc1cc(OC)c(NC(=S)Nc2cc(Cl)cc(Cl)c2)cc1Cl`, the Potency was inconclusive [activator, partial curve].
In the case of `COc1ccc(Cn2c(C(=O)O)c(CNCCc3ccccc3Cl)c3ccc(C)cc32)cc1`, the Potency is reported as inconclusive [activator, partial curve].
For `Cc1cc(C)cc(OCC(=O)Nc2cccc(-c3nc4ccccc4[nH]3)c2)c1`, the Potency was inconclusive [activator, single point].
For `c1ccc(-c2cnc(-c3ccccn3)nn2)cc1`, the Potency was active: 22.4 µM.
In the case of `COc1ccccc1N1CCN(C(=O)c2onc(C)c2Cl)CC1`, the Potency is reported as inconclusive [activator, single point].
With `CCOC(=O)NC(O)C(=O)c1cccs1` (stereo unspecified) the Potency was inconclusive [activator, partial curve, poor fit].
In the case of `N#Cc1ccccc1NC(=O)COC(=O)c1cccs1`, the Potency is reported as active: 10 µM.
For `COc1cc(NC(=O)CSc2nc3nc(C)c(Cc4ccccc4)c(C)n3n2)cc(OC)c1`, the Potency was “inactive”.
In the case of `Nn1c(Cc2cccc3ccccc23)nnc1SCc1ccccc1`, the Potency is reported as inconclusive [activator, partial curve].
With `O=C(COC(=O)c1cc(Cl)ccc1O)c1ccc2c(c1)OCO2` the Potency was inconclusive [activator, partial curve, poor fit].
With `CCSc1nc(=S)cc(C)[nH]1` the Potency was inconclusive [activator, full curve].
In the case of `CN(C)c1ccc(CNCCC2(O)CCOC(C)(C)C2)cc1` (stereo unspecified), the Potency is reported as “inactive”.
In the case of `Cc1cc(O)c(C(=O)c2cnc3c(c2)COc2ccccc2-3)cc1Cl`, the Potency is reported as “inactive”.
With `COc1ccc(Cl)cc1NC(=S)NCCSc1ccc(C)cc1` the Potency was active: 22.4 µM.
In the case of `CC1(C)Cc2nc3sc4c(=O)[nH]cnc4c3cc2CS1`, the Potency is reported as inconclusive [activator, partial curve].
For `CC1(C(=O)NCc2cccc(Cl)c2)Cc2c(-c3ccc4c(c3)OCO4)ccnc2O1` (stereo unspecified), the Potency was inconclusive [activator, single point].
In the case of `CCn1cnc2c1c(=O)n(Cc1csc(-c3ccccc3)n1)c(=O)n2Cc1ccccc1`, the Potency is reported as inconclusive [activator, single point].
For `O=C(c1ccc(S(=O)(=O)N2CCCCC2)cc1)N1CCCc2ccccc21`, the Potency was inconclusive [activator, partial curve, poor fit].
With `COc1cccc(CNc2nc3nc(C)c(Cl)c(C)n3n2)c1` the Potency was inconclusive [activator, partial curve].
For `Nc1ncnc2c1ccn2[C@H]1CN(Cc2ccc(Cl)cc2)C[C@@H](CO)O1`, the Potency was inconclusive [activator, partial curve].
For `O=C(c1ccc(Cl)cc1Cl)N1CCSCC1`, the Potency was “inactive”.
With `O=C(c1ccc(S(=O)(=O)N2CCCCCC2)cc1)N1CCN(c2ccccc2)CC1` the Potency was inconclusive [activator, full curve].
In the case of `O=C(c1ccoc1)N1CCN(c2cc(-c3ccncc3)nc3cc(-c4cccc(Cl)c4)nn23)CC1`, the Potency is reported as inconclusive [activator, full curve].
With `COc1cc(C(=O)Nc2ccc(-c3cc(C(F)(F)F)nn3-c3ccccc3)cc2)cc(OC)c1OC` the Potency was inconclusive [activator, partial curve, poor fit].
In the case of `COc1ccc(-c2ccc(CCC(=O)O)n2Cc2ccco2)cc1`, the Potency is reported as inconclusive [activator, single point].
With `CCN(C(=O)C1CCN(c2nc(-c3ccc(OC)cc3)no2)CC1)c1ccccc1` the Potency was inconclusive [activator, single point].
In the case of `Cc1ccc(C(=O)N2CCN(c3ccccc3F)CC2)cc1NC(=O)c1nsc2ccccc12`, the Potency is reported as inconclusive [activator, partial curve, poor fit].
For `COc1ccc(-c2[nH]ncc2C(=O)NCc2ccc(F)cc2)cc1`, the Potency was “inactive”.
In the case of `CCCCNC(=O)Nc1nnc(-c2ccccc2)o1`, the Potency is reported as inconclusive [activator, partial curve].
In the case of `CCC(Cn1nnc2ccccc2c1=O)NC(=O)Nc1cccc(Cl)c1` (stereo unspecified), the Potency is reported as “inactive”.
With `CCOc1ccc(/C=C/C(=O)NC2CCCCC2)cc1` the Potency was inconclusive [activator, full curve].
With `COc1cccc(CNC(=O)CCC(=O)N2CC3CCCN3c3ccccc32)c1` (stereo unspecified) the Potency was inconclusive [activator, partial curve, poor fit].
With `Nc1ccc(C#Cc2ccc3c(=O)c4ccccc4oc3c2)cc1` the Potency was active: 35.5 µM.
For `O=C(Nc1ncc(Cc2cccc(Cl)c2)s1)C1CCCO1` (stereo unspecified), the Potency was inconclusive [activator, single point].
With `COC(=O)c1ccc(NC(=O)Cc2ccccc2)cc1` the Potency was “inactive”.
For `COCC(C)n1c(C)cc(C(=O)COc2ccc(S(=O)(=O)N3CCOCC3)cc2Cl)c1C` (stereo unspecified), the Potency was inconclusive [activator, partial curve].
With `CCn1c(=S)[nH]c2scc(-c3cccs3)c2c1=O` the Potency was inconclusive [activator, partial curve].
In the case of `CCOc1cc(C(=O)NCc2ccc3c(c2)CCN3C(=O)CC)cc(OCC)c1OCC`, the Potency is reported as inconclusive [activator, partial curve, poor fit].
With `Cc1ccc(S(=O)(=O)N2CCN(C(=O)COC(=O)c3ncc(Cl)c(Cl)c3Cl)CC2)c(C)c1` the Potency was inconclusive [activator, single point].
For `N/C(Cc1cccc2ccccc12)=N\OC(=O)COc1ccccc1`, the Potency was active: 22.4 µM.
In the case of `Cc1cc(C)nc(S/C=C/C(=O)c2ccccc2)n1`, the Potency is reported as inconclusive [activator, single point].
In the case of `CN(C(=O)Nc1cn(C)c(=O)c2ccccc12)c1ccccc1`, the Potency is reported as inconclusive [activator, partial curve, poor fit].
With `CCOC(=O)C1=CCN(S(=O)(=O)c2ccccc2)C1c1ccc(Cl)cc1` (stereo unspecified) the Potency was active: 35.5 µM.
For `O=C(c1cn(CC2CCCCC2)nn1)N1CCN(c2ccc(F)cc2)CC1`, the Potency was inconclusive [activator, partial curve].
With `c1ccc(-c2csc3ncnc(-n4cnc5ccccc54)c23)cc1` the Potency was inconclusive [activator, single point].
With `COc1cccc(NS(=O)(=O)c2ccc3[nH]cc(C(=O)NC4CCCCC4)c(=O)c3c2)c1` the Potency was “inactive”.
With `CCOC(=O)c1c(S(=O)(=O)NCC(C)c2ccccc2)c(C)n(C)c1C` (stereo unspecified) the Potency was “inactive”.
For `O=[N+]([O-])c1ccc(O)c2ncccc12`, the Potency was “inactive”.
In the case of `CC(C)c1ccc(S(=O)(=O)N2CCN(CCC(=O)Nc3ccc(N(C)C)cc3)CC2)cc1`, the Potency is reported as “inactive”.
With `O=C(O)c1ccc(CSCc2ccco2)cc1` the Potency was inconclusive [activator, single point].
For `COc1cc2ccccc2cc1C(=O)N1CCN(c2nc3c(F)cc(F)cc3s2)CC1`, the Potency was active: 15.8 µM.
For `O=c1sc2ccccc2n1CCOc1ccccc1`, the Potency was active: 11.2 µM.
In the case of `Cc1cc(=O)n(Cc2c(F)cccc2Cl)c2c1c(C)nn2C`, the Potency is reported as “inactive”.
In the case of `CC(C)C(=O)N1CCC1(C)C(=O)Nc1cccc(Oc2ccccc2)c1` (stereo unspecified), the Potency is reported as inconclusive [activator, single point].
For `Cn1c(=O)c2cc(NC(=O)Nc3ccccc3)ccc2n1Cc1ccccc1`, the Potency was inconclusive [activator, full curve].
For `COC(=O)N/N=C/c1cn(Cc2ccccc2Cl)c2ccccc12`, the Potency was inconclusive [activator, partial curve].
For `CCc1ccc2oc(-c3ccc(NC(=O)c4cccc(Cl)c4Cl)cc3)nc2c1`, the Potency was inconclusive [activator, single point].
With `Clc1cccc(-c2nc3ccc(Cl)cn3c2Cc2ccccc2)c1` the Potency was active: 15.8 µM.
For `O=C(Nc1nnc(-c2ccc(Cl)s2)o1)C1CC1`, the Potency was inconclusive [activator, full curve, poor fit].
In the case of `O=C(COc1ccccc1Cl)N(Cc1cccc(F)c1)C1CCS(=O)(=O)C1` (stereo unspecified), the Potency is reported as inconclusive [activator, partial curve, poor fit].
For `O=C(/C=C/c1ccc(Cl)cc1)N1CCN(c2ccccc2[N+](=O)[O-])CC1`, the Potency was inconclusive [activator, single point].
With `Cc1nc(Nc2ccccc2)sc1-c1ccccc1` the Potency was active: 20 µM.
With `COc1ccccc1NC(=O)c1ccc(NC(=O)C2COc3ccccc3O2)cc1` (stereo unspecified) the Potency was inconclusive [activator, partial curve].
With `O=C1CCCCC1Nc1ccc2ccccc2c1` (stereo unspecified) the Potency was inconclusive [activator, single point].
In the case of `COC(=O)C1NN=C(C(=O)c2ccc(Br)cc2)C1c1cccc(Br)c1` (stereo unspecified), the Potency is reported as active: 25.1 µM.
In the case of `CSc1cccc(NC(=O)CN2C(=O)CCc3cc(S(=O)(=O)N4CCCCC4)ccc32)c1`, the Potency is reported as inconclusive [activator, single point].
With `CC(Oc1ccccc1)C(=O)Nc1nc(-c2ccccn2)cs1` (stereo unspecified) the Potency was inconclusive [activator, single point].
With `COc1ccccc1-c1nnc(C2CCN(S(=O)(=O)c3cccc([N+](=O)[O-])c3)CC2)o1` the Potency was “inactive”.
